This is an account of results in ChEMBL document CHEMBL4888484, “Replenishing the malaria drug discovery pipeline: Screening and hit evaluation of the MMV Hit Generation Library 1 (HGL1) against asexual blood stage Plasmodium falciparum ,using a nano luciferase reporter read-out” (2022).

In all, about 150,000 compounds went through this assay and about 540 (0.36%) showed an effect of 50% or more. The list shows a part of the results.

In the assay the test system is Plasmodium falciparum. Kind of assay: Primary screen in NF54 nanoGlo assay, in single point, at 2uM, 72h; a lower Z score goes with more inhibition. Format: functional, Erythrocyte. As to conditions: timepoint 72 hour.
One may read the % Inhibition as the change of the read-out against control, counted positive when it falls. On to `CC(C)NC(=O)N(Cc1cccc(Cl)c1)C[C@H]1CC(c2ccccc2Cl)=NO1`, for which the “% Inhibition” value is -9% and the Z score was 1.32.
The matching figures for `CCc1csc(-c2ccc(S(=O)(=O)Nc3ccc(C)c(C)c3)s2)n1`: -6% and 1.07.
With `Cn1c(N2CCC(C(=O)NCc3cccs3)CC2)cc(=O)n(C)c1=O`, the “% Inhibition” value was -11% and the Z score is 1.66.
Taken in the same sequence, the figures for `CCn1ncc(CNC(=O)[C@H](C)n2ccnc2C)c1C` were -10% and 1.01.
Regarding `Cn1c(=O)c2c(ncn2CC(=O)c2ccc3c(c2)OCCO3)n(C)c1=O`, the “% Inhibition” value is listed as -14% and the Z score was found to be 1.93.
Taken in the same sequence, the figures for `Cc1ncn(CC(=O)N2CCC(c3nnc(-c4ccc(F)cc4)o3)CC2)c(=O)c1C` were -14% and 1.62.
On to `Cc1cccc(-c2ncc(CN3CCCN(S(=O)(=O)N4CCCC4)CC3)cn2)c1`, for which the “% Inhibition” value is reported as -19% and the Z score is 3.13.
The matching figures for `CN(C)c1nc2cc(NC(=O)c3ccco3)ccc2o1`: -24% and 4.64.
With `O=C(NCC1(CN2CCOCC2)CC1)Nc1cccc(-c2cscn2)c1`, the “% Inhibition” value turned out to be 0% and the Z score was 0.08.
Taken in the same sequence, the figures for `Cc1cc(C)nc(NC(=O)N(CCO)C2CC2)c1` were -11% and 1.07.
Take `C[C@H](NC(=O)c1nc(C2CC2)nn1C)c1ccc(OC(F)F)cc1`: the “% Inhibition” value is -3% and the Z score came to 0.54.
As for `Cc1noc(C)c1CCCN[C@@H](C)c1cccc(O)c1`, the “% Inhibition” value is listed as -4% and the Z score amounted to 0.37.
Taken in the same sequence, the figures for `COc1ccc(-c2noc(C3(c4cccc(Cl)c4)CCOCC3)n2)cc1` were -7% and 0.98.
Taken in the same sequence, the figures for `CC1CN(C(=O)c2cccn(C)c2=O)CC(C)N1` (stereo not drawn) were 12% and -1.71.
The matching figures for `Fc1cccc(Cl)c1CNc1cc(-c2ccncc2)nc2ccnn12`: -4% and 0.44.
Take `Cc1cc(O)ccc1C(=O)N[C@H](c1cnn(C)c1)C1CC(O)C1` (stereo partly drawn): the “% Inhibition” value is given as 5% and the Z score is -1.01.
The matching figures for `Nc1ccc(-c2cc(C(=O)N3CCOCC3)ccn2)cn1`: -7% and 1.05.
As for `Cc1ccc(Oc2cnn(-c3ccc(F)cc3)c(=O)c2Nc2cccc(C(=O)N[C@@H](C)c3ccccc3)c2)cc1`, the “% Inhibition” value is given as -7% and the Z score stood at 0.65.
The matching figures for `O=C(c1ccc(Cn2cc(Br)cn2)o1)N1CCC12CCC2`: -17% and 3.15.
Take `COc1ccnc(NCCc2nnc3n2CCN(C)C3=O)n1`: the “% Inhibition” value is -5% and the Z score worked out at 0.87.
Taken in the same sequence, the figures for `CN(C)C(=O)N1CCC(c2nc(Cc3cccs3)no2)CC1` were -3% and 0.36.
Taken in the same sequence, the figures for `O=C(Nc1ccccc1)Nc1nc2c(s1)CCCCCCCCCC2` were 44% and -5.02.
The matching figures for `O=C(Cn1nc(C2CC2)ccc1=O)Nc1ncccc1O`: 15% and -1.96.
For `Cc1ccccc1Cn1nc(C)c(NC(=O)c2cc(-c3ccc4c(c3)OCO4)on2)c1C`, the “% Inhibition” value is -7% and the Z score is on record as 0.99.
Taken in the same sequence, the figures for `COCCC(=O)N1CC2CC1CS2(=O)=O` (stereo not drawn) were -11% and 1.23.
Consider `O=C(c1nc2ccc(F)cc2[nH]1)N1C[C@H]2CCC[C@@H](C2)C1`, for which the “% Inhibition” value is reported as -6% and the Z score was found to be 1.17.
Taken in the same sequence, the figures for `Cc1nn(-c2ccccc2)c(Oc2ccc(Cl)cc2)c1CN(C(=O)NC(C)(C)C)C1CC1` were -1% and 0.09.
Taken in the same sequence, the figures for `C[C@@H](c1ccco1)N(C)C(=O)NCC(C)(C)CCS(C)(=O)=O` were -13% and 2.17.
In the case of `COc1cc(OC)cc(C(=O)N2CCCN(c3nc(CC(C)C)nc4c3cnn4-c3ccccc3)CC2)c1`, the “% Inhibition” value is on record as -2% and the Z score came out at 0.27.
Taken in the same sequence, the figures for `Cc1cccc(C2(C(=O)N(C)c3nnc(C)s3)CCCCC2)c1` were 2% and -0.16.
On to `CCOCCCNC(=O)N1CC[C@H](c2nc(-c3cccn3C)no2)C1`, for which the “% Inhibition” value is -12% and the Z score is recorded as 1.61.
The matching figures for `O=C(CNC(=O)C1CCCCC1)OCc1nnsc1Cl`: -2% and 0.23.
Take `Cc1ccc([C@H]2CN(C(=O)c3ccncc3F)C[C@@H]2N(C)C)cc1`: the “% Inhibition” value is -6% and the Z score was determined as 0.61.
As to `COc1ccc2[nH]c3c(c2c1)CCN(C(=O)c1cc(Cl)cc(Cl)c1)[C@@H]3c1ccccc1OC`, the “% Inhibition” value is -11% and the Z score worked out at 1.21.
Regarding `COc1ccc(CNCc2cccc(OCc3ccc(Cl)cc3)c2)cc1`, the “% Inhibition” value was -32% and the Z score is 3.71.
Taken in the same sequence, the figures for `Oc1cccc(C2Nc3ccc(Cl)cc3C3OCCC23)c1` (stereo not drawn) were -12% and 1.44.
As for `Cc1noc(CCN[C@@H](C)c2ccc(-n3cnnn3)cc2)n1`, the “% Inhibition” value is -6% and the Z score is 1.08.
The matching figures for `COc1cnc(N(C)C(=O)CCC2CCOCC2)nc1`: -12% and 1.58.
The matching figures for `Nc1ccc(OCC(F)(F)F)c(F)c1`: 25% and -2.86.
The matching figures for `Cc1cnn([C@H]2CCCN(c3ccnc(CO)c3)C2)c1`: -12% and 1.24.
For the molecule `Cc1ccc(NC(=O)c2cccc(N3C[C@@H](C(=O)Nc4ccc(C)cc4F)CC3=O)c2)cc1`, the “% Inhibition” value is -26% and the Z score was found to be 2.56.
Taken in the same sequence, the figures for `COc1cc(OC)nc(N[C@@H]2COCC[C@@H]2OCc2c(C)noc2C)n1` were -10% and 1.77.
The matching figures for `CCOc1ncccc1-c1cc(NC2CC2)nc(N)n1`: -1% and 0.16.
The matching figures for `Cc1cn(Cc2ncnn2C2CCCCC2)c(=O)[nH]c1=O`: -11% and 1.39.
As for `CNC(=O)c1nsc(C(=O)OC)c1N`, the “% Inhibition” value is given as -4% and the Z score stood at 0.44.
As to `Cn1c(C(=O)Nc2cc(F)ccc2NC(=O)c2ccccn2)cc(Cl)c1Cl`, the “% Inhibition” value is -27% and the Z score was 2.71.
The matching figures for `C[C@]1(c2nc(C3CC3)no2)CCCN(C(=O)Cc2ccsc2)C1`: 12% and -1.44.
For `C[C@@H](c1cccs1)N(C)C(=O)COn1nnc2ccccc21`, the “% Inhibition” value is -9% and the Z score is 1.74.
Consider `CN(C)c1ncc(CN[C@]2(CO)COc3ccccc3C2)cn1`, for which the “% Inhibition” value is listed as -3% and the Z score amounted to 0.38.
The matching figures for `Cc1cc(C)nc(-n2[nH]c(C(=O)N3CCCCCO3)cc2=O)n1`: -6% and 0.77.
Consider `c1ccc(CN2CCC3(CCN(c4ncnc5[nH]ncc45)CC3)C2)cc1`, for which the “% Inhibition” value is on record as -20% and the Z score is listed as 3.84.
The matching figures for `CCN1CCN(C(=O)c2cc(COc3ccc(F)c(F)c3)on2)[C@@H](C)C1=O`: -26% and 2.99.
Regarding `O=C(c1cnn2c1CCCC2)N1CCN(S(=O)(=O)Cc2ccc(Cl)cc2)CC1`, the “% Inhibition” value is on record as -4% and the Z score was 0.68.
The matching figures for `Cc1cc(NC(=O)NC2CCCCCCC2)no1`: -8% and 1.33.
Consider `Cn1nc(C(=O)N2CCCc3ccccc32)c2ccccc2c1=O`, for which the “% Inhibition” value is -15% and the Z score came to 2.37.
As for `Cc1cc(C)cc(N2C(=O)NC3c4ccccc4OC2(C)C3C(=O)Nc2ccc(Cl)cc2)c1` (stereo not drawn), the “% Inhibition” value amounted to 29% and the Z score is on record as -3.85.
Taken in the same sequence, the figures for `COc1cccc(CN2CCN(C(=O)N3CCCC3)CC2)n1` were 6% and -1.1.
The matching figures for `O=C(Cn1cc(S(=O)(=O)c2ccccc2)c2ccccc21)N1CCOCC1`: -18% and 1.98.
Take `N#CCCN(CCC(F)(F)F)C(=O)[C@H]1CCCOC1`: the “% Inhibition” value is on record as -10% and the Z score is 0.99.
Take `CC(C)c1ccc(NC[C@H]2CC2(C)C)nn1`: the “% Inhibition” value is -23% and the Z score was determined as 3.39.
The matching figures for `Cc1nccc(CNC(=O)c2ccccc2NC(=O)C(C)(C)C)n1`: 3% and -0.49.
Taken in the same sequence, the figures for `O=C(COCc1nc2cc(F)ccc2[nH]1)N[C@@H]1C[C@H]2OCC[C@@H]12` were -16% and 1.75.
As to `O=C(NC1(c2ncccn2)CCOCC1)c1csc(NC2CC2)n1`, the “% Inhibition” value stood at 0% and the Z score worked out at 0.04.
Taken in the same sequence, the figures for `Cc1cccc(C)c1-n1c(=O)n(C[C@H]2CCCO2)c(=O)c2c1ncn2CCOc1ccccc1` were -15% and 1.36.
With `Cc1noc([C@@H]2CN(C(=O)NC3CCC(=O)NC3C3CCCO3)C[C@H](C)O2)n1` (stereo partly drawn), the “% Inhibition” value is reported as -3% and the Z score turned out to be 0.27.
The matching figures for `Cc1noc(C)c1CC(=O)N1C[C@H](c2nc(C3CC3)no2)C2(CCN(C)CC2)C1`: -5% and 0.73.
`Cc1ccoc1C(=O)NS(=O)(=O)c1ccc(NS(C)(=O)=O)c(F)c1`: the “% Inhibition” value is on record as -16% and the Z score is reported as 2.1.
In the case of `CCN1CN(C(=O)C2(C)CC3CC3C2)CC1=O` (stereo not drawn), the “% Inhibition” value worked out at 21% and the Z score was -3.18.
Taken in the same sequence, the figures for `Cc1ccc(F)c(NC(=O)c2sc(-c3cn(C)c4ncccc34)nc2C)c1` were -5% and 0.82.
On to `Cc1nc2ccc(NCN3C(=O)NC(C)(C)C3=O)cc2s1`, for which the “% Inhibition” value is recorded as -8% and the Z score is reported as 0.92.
The matching figures for `COc1ccc2cc1OCCn1cc(nn1)CO[C@H]1CN(C(=O)c3cccc4c3CCC4=O)C[C@@H]1NC2=O`: 0% and 0.05.
The matching figures for `C#CCN(CC#N)S(=O)(=O)c1cnn(C)c1`: 1% and -0.11.
The matching figures for `CC1(C)CC(=O)c2cnc3c(C(=O)N4CCN(c5ccc(Cl)cc5)CC4)cnn3c2C1`: -15% and 2.03.
Regarding `O=C(CNC1CCCC1)Nc1ccc(F)cc1F`, the “% Inhibition” value is recorded as -7% and the Z score amounted to 1.11.
For `CC(NC(=O)Cn1cc(C(F)(F)F)ccc1=O)C1CCCO1` (stereo not drawn), the “% Inhibition” value is given as -5% and the Z score is on record as 0.41.
The matching figures for `COC(=O)C1C2CCC(C2)C1NC(=O)CCn1cc(C)cn1` (stereo not drawn): 7% and -0.83.
For `C=Cn1cc[n+](CC(=O)c2ccc(-c3ccccc3)cc2)c1`, the “% Inhibition” value amounted to 47% and the Z score is -4.71.
The matching figures for `Cc1nn(C)c(C)c1-c1ccnc(N[C@H](c2ccncc2)c2ccc(F)cc2)n1`: -2% and 0.44.
The matching figures for `CCOC(=O)N1CCN(/C(=N/c2sc(-c3ccccc3)nc2-c2ccccc2)c2ccc(C)cc2)CC1`: 0% and 0.01.
On to `COc1ccc(-c2ccc(=O)[nH]n2)cc1S(=O)(=O)Nc1cc(C)ccc1C`, for which the “% Inhibition” value was 2% and the Z score was -0.24.
With `CCOC(=O)NCC(=O)NCc1cccs1`, the “% Inhibition” value was -4% and the Z score was found to be 0.44.
The matching figures for `C[C@H]1CCCN(C(=O)C2CC=CC2)CC1`: -4% and 0.42.
As to `Cc1nc(CC(=O)N2CCCN(C(=O)C(F)(F)F)CC2)c(C)s1`, the “% Inhibition” value was found to be 5% and the Z score is recorded as -0.87.
For the molecule `CCCCN1CC(=O)N=C1Nc1ccccc1`, the “% Inhibition” value is recorded as -4% and the Z score is on record as 0.5.
